Reference: the supplement of paper PMC4604168 (melanoma cell lines)
This is one part of the list. Repeats are few or missing, and single values can be far off.

Columns and labels:
Test in all cases: cell count relative to DMSO control; melanoma cells; higher = more viable cells
Details in all cases: library dose: low library concentration; 72 h
WM115 = tested on: WM115
WM1716 = tested on: WM1716
WM1745 = tested on: WM1745
WM3526 = tested on: WM3526
WM3619 = tested on: WM3619
WM451Lu = tested on: WM451Lu
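Further: cell number obtained by counting DAPI-stained nuclei in high-throughput microscope images with image analysis software, screen run in 1,536-well plates.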

| SMILES | cell count (WM115) [%] | cell count (WM1716) [%] | cell count (WM1745) [%] | cell count (WM3526) [%] | cell count (WM3619) [%] | cell count (WM451Lu) [%] |
| --- | --- | --- | --- | --- | --- | --- |
| CC(=O)c1c(C)c2cnc(Nc3ccc(N4CCNCC4)cn3)nc2n(C2CCCC2)c1=O [palbociclib] + Cc1ccc(NC(=O)c2cccc(N(C)C)c2)cc1NC(=O)c1ccc(O)cc1 [ZM336372] (first compound 0.04 µM, partner dose 2 µM) | 81.5 | 72.3 | 73.7 | 58.9 | 71 | 94.1 |
| Nc1ccn([C@@H]2O[C@H](CO)[C@@H](O)C2(F)F)c(=O)n1 [gemcitabine] + Cn1nnc2c(C(N)=O)ncn2c1=O [temozolomide] (first compound 0.0004 µM, partner dose 2 µM) | 93.3 | 76.6 | 84 | 107 | 81.3 | 96.7 |
| CO[C@H]1C[C@@H]2CC[C@@H](C)[C@@](O)(O2)C(=O)C(=O)N2CCCC[C@H]2C(=O)O[C@H]([C@H](C)C[C@@H]2CC[C@@H](OCCO)[C@H](OC)C2)CC(=O)[C@H](C)/C=C(\C)[C@@H](O)[C@@H](OC)C(=O)[C@H](C)C[C@H](C)/C=C/C=C/C=C/1C [everolimus] + NC(=O)Nc1cc(-c2cccc(F)c2)sc1C(=O)N[C@H]1CCCNC1 [AZD7762] (first compound 0.02 µM, partner dose 0.02 µM) | 82.1 | 76.5 | 69 | 53.3 | 44.6 | 65.4 |
| CC(=O)O[C@@]12CO[C@@H]1C[C@H](O)[C@@]1(C)C(=O)[C@H](O)C3=C(C)[C@@H](OC(=O)[C@H](O)[C@@H](NC(=O)OC(C)(C)C)c4ccccc4)C[C@@](O)([C@@H](OC(=O)c4ccccc4)[C@H]21)C3(C)C [Docetaxel] + COc1cc(Nc2ncc(F)c(Nc3ccc4c(n3)NC(=O)C(C)(C)O4)n2)cc(OC)c1OC [Tamatinib] (first compound 0.0001 µM, partner dose 0.4 µM) | 56.9 | 29.2 | 28.9 | 39.3 | 58.2 | 45.2 |
| CC(=O)O[C@@]12CO[C@@H]1C[C@H](O)[C@@]1(C)C(=O)[C@H](O)C3=C(C)[C@@H](OC(=O)[C@H](O)[C@@H](NC(=O)OC(C)(C)C)c4ccccc4)C[C@@](O)([C@@H](OC(=O)c4ccccc4)[C@H]21)C3(C)C [Docetaxel] + C[C@@H](Oc1cc(-c2cnn(C3CCNCC3)c2)cnc1N)c1c(Cl)ccc(F)c1Cl [Crizotinib] (first compound 0.0001 µM, partner dose 0.2 µM) | 55.9 | 47.5 | 66.1 | 45.2 | 60.7 | 46.3 |
| Nc1nc(F)nc2c1ncn2[C@@H]1O[C@H](CO)[C@@H](O)[C@@H]1O [fludarabine] + O=C(Nc1ccccc1)c1cc([N+](=O)[O-])ccc1Cl [GW9662] (first compound 0.2 µM, partner dose 2 µM) | 107 | 106 | 109 | 25.3 | 111 | 46.4 |
| CC(=O)c1c(C)c2cnc(Nc3ccc(N4CCNCC4)cn3)nc2n(C2CCCC2)c1=O [palbociclib] + Nc1cccc2c1CN(C1CCC(=O)NC1=O)C2=O [lenalidomide] (first compound 0.04 µM, partner dose 1 µM) | 67.8 | 71.7 | 65.2 | 63.7 | 53.3 | 75.2 |
| CC(=O)O[C@@]12CO[C@@H]1C[C@H](O)[C@@]1(C)C(=O)[C@H](O)C3=C(C)[C@@H](OC(=O)[C@H](O)[C@@H](NC(=O)OC(C)(C)C)c4ccccc4)C[C@@](O)([C@@H](OC(=O)c4ccccc4)[C@H]21)C3(C)C [Docetaxel] + CC(C)CCN1c2nc(Nc3cc(F)c(O)c(F)c3)ncc2N(C)C(=O)C1C [BID1870] (first compound 0.0001 µM, partner dose 0.2 µM) | 60.2 | 42.4 | 53.5 | 24.6 | 71.1 | 48.5 |
| Nc1ncn([C@H]2C[C@H](O)[C@@H](CO)O2)c(=O)n1 [decitabine] + Cc1cc([N+](=O)[O-])ccc1NS(=O)(=O)c1cc(Cl)ccc1Cl [FH535] (first compound 0.1 µM, partner dose 1 µM) | 77.7 | 89.1 | 94.4 | 113 | 74.3 | 103 |
| CC(=O)O[C@@]12CO[C@@H]1C[C@H](O)[C@@]1(C)C(=O)[C@H](O)C3=C(C)[C@@H](OC(=O)[C@H](O)[C@@H](NC(=O)OC(C)(C)C)c4ccccc4)C[C@@](O)([C@@H](OC(=O)c4ccccc4)[C@H]21)C3(C)C [Docetaxel] + C[C@]1(c2nc3c(C(N)=O)cccc3[nH]2)CCCN1 [Veliparib] (first compound 0.0001 µM, partner dose 1.4 µM) | 59.1 | 31.9 | 53.1 | 36.2 | 73.2 | 47 |
| Nc1ncn([C@H]2C[C@H](O)[C@@H](CO)O2)c(=O)n1 [decitabine] + COc1ccc2c(c1)CCC1C2CCC2(C)C(NCCCCCCN3C(=O)C=CC3=O)CCC12 [U73122] (first compound 0.1 µM, partner dose 0.4 µM) | 79.7 | 76.4 | 90.8 | 100 | 145 | 118 |
| Nc1ccn([C@@H]2O[C@H](CO)[C@@H](O)C2(F)F)c(=O)n1 [gemcitabine] + COc1cc(Nc2ncc(F)c(Nc3ccc4c(n3)NC(=O)C(C)(C)O4)n2)cc(OC)c1OC [Tamatinib] (first compound 0.0004 µM, partner dose 0.4 µM) | 85 | 103 | 59.5 | 82.6 | 91.7 | 99 |
| CO[C@H]1C[C@@H]2CC[C@@H](C)[C@@](O)(O2)C(=O)C(=O)N2CCCC[C@H]2C(=O)O[C@H]([C@H](C)C[C@@H]2CC[C@@H](OCCO)[C@H](OC)C2)CC(=O)[C@H](C)/C=C(\C)[C@@H](O)[C@@H](OC)C(=O)[C@H](C)C[C@H](C)/C=C/C=C/C=C/1C [everolimus] + CCCS(=O)(=O)Nc1ccc(F)c(C(=O)c2c[nH]c3ncc(Cl)cc23)c1F [PLX4720] (first compound 0.02 µM, partner dose 0.08 µM) | 74.6 | 76.4 | 84.4 | 66.2 | 65.4 | 62.2 |
| CC(=O)c1c(C)c2cnc(Nc3ccc(N4CCNCC4)cn3)nc2n(C2CCCC2)c1=O [palbociclib] + CN(NC(=O)CC(=O)NN(C)C(=S)c1ccccc1)C(=S)c1ccccc1 [STA4783] (first compound 0.04 µM, partner dose 0.006 µM) | 77.2 | 52.1 | 21.5 | 60.4 | 14.8 | 89.3 |
| Nc1ccn([C@@H]2O[C@H](CO)[C@@H](O)C2(F)F)c(=O)n1 [gemcitabine] + N#Cc1c(O)c2c(-c3ccc(-c4ccccc4O)cc3)csc2[nH]c1=O [A769662] (first compound 0.0004 µM, partner dose 2 µM) | 105 | 96.1 | 84 | 89.4 | 65 | 118 |
| Nc1nc(F)nc2c1ncn2[C@@H]1O[C@H](CO)[C@@H](O)[C@@H]1O [fludarabine] + CN(C)S(=O)(=O)c1ccc2c(c1)/C(=C/c1cc3c([nH]1)CCCC3)C(=O)N2 [SU6656] (first compound 0.2 µM, partner dose 0.4 µM) | 77.5 | 102 | 98.3 | 27 | 95.4 | 65.4 |
| CC(=O)O[C@@]12CO[C@@H]1C[C@H](O)[C@@]1(C)C(=O)[C@H](O)C3=C(C)[C@@H](OC(=O)[C@H](O)[C@@H](NC(=O)OC(C)(C)C)c4ccccc4)C[C@@](O)([C@@H](OC(=O)c4ccccc4)[C@H]21)C3(C)C [Docetaxel] + CCCS(=O)(=O)Nc1ccc(F)c(C(=O)c2c[nH]c3ncc(Cl)cc23)c1F [PLX4720] (first compound 0.0001 µM, partner dose 0.08 µM) | 71.8 | 40.1 | 58.6 | 36 | 75.7 | 86.3 |
| Nc1ccn([C@@H]2O[C@H](CO)[C@@H](O)C2(F)F)c(=O)n1 [gemcitabine] + c1cc(-c2cnn3cc(-c4ccc(OCCN5CCCCC5)cc4)cnc23)ccn1 [Dorsomorphin] (first compound 0.0004 µM, partner dose 0.4 µM) | 94.1 | 86.7 | 69.9 | 100 | 69.1 | 105 |
| Nc1ncn([C@H]2C[C@H](O)[C@@H](CO)O2)c(=O)n1 [decitabine] + COc1cc2ncnc(Nc3ccc(Oc4ccccc4)cc3)c2cc1OC [SrcI1] (first compound 0.1 µM, partner dose 2 µM) | 96 | 94.2 | 88.8 | 103 | 106 | 127 |
| CC(=O)O[C@@]12CO[C@@H]1C[C@H](O)[C@@]1(C)C(=O)[C@H](O)C3=C(C)[C@@H](OC(=O)[C@H](O)[C@@H](NC(=O)OC(C)(C)C)c4ccccc4)C[C@@](O)([C@@H](OC(=O)c4ccccc4)[C@H]21)C3(C)C [Docetaxel] + Nc1nc(F)nc2c1ncn2[C@@H]1O[C@H](CO)[C@@H](O)[C@@H]1O [fludarabine] (first compound 0.0001 µM, partner dose 0.2 µM) | 58.1 | 31.9 | 42.7 | 24.2 | 58 | 41.8 |
| Nc1nc(F)nc2c1ncn2[C@@H]1O[C@H](CO)[C@@H](O)[C@@H]1O [fludarabine] + CCCCCCCCCCCC1=C(O)C(=O)C=C(O)C1=O [Embelin] (first compound 0.2 µM, partner dose 1.2 µM) | 97.5 | 114 | 118 | 24.5 | 104 | 46.9 |
